# Test results published in PubChem BioAssay AID1460 (National Center for Advancing Translational Sciences (NCATS), 2008).
# In all, about 270,000 compounds went through this assay and about 5,800 (2.1%) were called active. Inconclusive results, whose numbers are uncertain, are shown with a selection of clear calls. Calls follow the shape of the dose curve; as a rule, active = well fitted inhibition curve with a large enough effect; inconclusive = small, poorly fitted or top-dose-only effect; inactive = flat fitted curve, though single readings scatter. Potencies beside an inconclusive call are fits to weak or partial responses and may not hold up.
# Molecular target: Microtubule-associated protein tau (Homo sapiens) (UniProt P10636)
# Chain of UniProt P10636 (P10636 whole entry, looked up): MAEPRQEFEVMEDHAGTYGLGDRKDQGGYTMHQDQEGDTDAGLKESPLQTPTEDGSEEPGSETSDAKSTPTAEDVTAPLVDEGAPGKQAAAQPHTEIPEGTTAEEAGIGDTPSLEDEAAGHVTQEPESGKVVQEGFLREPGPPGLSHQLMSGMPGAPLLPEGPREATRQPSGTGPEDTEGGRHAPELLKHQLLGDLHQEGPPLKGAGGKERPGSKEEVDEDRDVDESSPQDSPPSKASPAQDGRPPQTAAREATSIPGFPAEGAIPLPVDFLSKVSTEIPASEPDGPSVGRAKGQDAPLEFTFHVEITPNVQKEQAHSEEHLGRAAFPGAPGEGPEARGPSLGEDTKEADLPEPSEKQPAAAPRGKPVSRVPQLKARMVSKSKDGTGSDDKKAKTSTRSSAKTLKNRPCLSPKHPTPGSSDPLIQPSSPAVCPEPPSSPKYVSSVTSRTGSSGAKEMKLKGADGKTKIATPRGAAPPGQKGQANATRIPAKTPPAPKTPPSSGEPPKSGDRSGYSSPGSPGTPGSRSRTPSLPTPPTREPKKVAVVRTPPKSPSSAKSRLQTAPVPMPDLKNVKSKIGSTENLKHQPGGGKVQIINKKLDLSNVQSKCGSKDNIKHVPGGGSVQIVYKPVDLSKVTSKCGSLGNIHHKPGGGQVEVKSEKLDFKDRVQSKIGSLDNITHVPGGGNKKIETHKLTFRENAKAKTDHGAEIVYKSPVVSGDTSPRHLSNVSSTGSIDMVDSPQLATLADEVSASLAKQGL
# Assay: qHTS for Inhibitors of Tau Fibril Formation, Thioflavin T Binding; also: nearly all actives have a fitted effect of over 55% in size
# Details: recombinant tau K18 P301L (four-repeat tau fragment), heparin-induced fibrillization, ThT fluorescence; series mostly up to 57.4 µM
# Procedure, shortened: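 Heparin-induced (20 uM) aggregation of recombinant human K18 P301L tau, 15 uM unlabeled with 0.24 uM labeled, pH 7 acetate buffer, 6 hr at 37 C with compound. Fibrils quantified by 30 uM ThT fluorescence after 1 hr ambient incubation.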
# Potency is read from the fitted curve at half-maximal effect; tags tell the direction and shape of the fitted curve.
row,SMILES,Potency
1,CCCS(=O)(=O)c1c(S(=O)(=O)CCC)c2c(N)cccn2c1C(=O)c1ccc(OC)cc1,"inconclusive: 39.8 µM [inhibitor, single point]"
2,CC[C@@H]1Cc2cc(O)ccc2C2=C1c1ccc(O)cc1C[C@H]2CC,active: 17.8 µM
3,CC1(C)Cc2c(C#N)c(N)sc(=S)c2CS1,active: 17.8 µM
4,CCN(CC)S(=O)(=O)c1ccc(N2CCN(S(=O)(=O)c3ccc4c(c3)OCCO4)CC2)nc1,inactive
5,Cc1ccc(C(=O)C(C)OC(=O)c2cc3cc([N+](=O)[O-])ccc3oc2=O)cc1 (stereo not given),"inconclusive: 15.8 µM [inhibitor, partial curve]"
6,O=C1NC(=S)/C(=C\c2ccc(-c3ccccc3Cl)o2)S1,active: 7.94 µM
7,CCCn1c(-c2cccc([N+](=O)[O-])c2)nc2c1c(=O)[nH]c(=O)n2Cc1ccccc1,"inconclusive: 35.5 µM [inhibitor, single point]"
8,CCc1ccccc1Nc1nc(N)nc(CSCC(=O)c2cc(C)n(C)c2C)n1,"inconclusive: 25.1 µM [inhibitor, partial curve]"
9,O=C(Nc1ccccc1C(=O)N/N=C/c1ccco1)c1ccc(F)cc1,inactive
10,O=C(Nc1cc2c(cc1C(=O)c1ccccc1Br)OCCO2)c1cccc(Cl)c1,inactive
11,Cn1c(/C=C/N(Cc2ccccc2)c2ccccc2)c([N+](=O)[O-])c(=O)n(C)c1=O,"inconclusive: 17.8 µM [inhibitor, partial curve]"
12,COCCn1c(SCC(=O)N2CCCCC2)nc2ccccc2c1=O,inactive
13,COc1ccc2c(c1)c1c(c(=O)n(-c3cccc(C)c3)c(=O)n1Cc1cccc(Cl)c1)n2C,inactive
14,CCOc1ccc(C(=O)Nc2cc(OC)ccc2OC)cc1,"inconclusive: 8.91 µM [inhibitor, partial curve]"
15,CCc1ccccc1NC(=O)CSc1nc2c(oc3ccccc32)c(=O)n1C,inactive
16,COc1ccc2c(c1)C(=NNC(=O)c1ccccn1)c1cc(OC)ccc1-2,"inconclusive: 1.41 µM [inhibitor, partial curve]"
17,COc1ccc(C2NC(=O)C(C#N)=C(S)N2c2ccccc2)cc1OC (stereo not given),"inconclusive: 35.5 µM [inhibitor, single point]"
18,COc1cc(/C=c2\s/c(=C\C(=O)C(C)(C)C)[nH]c2=O)cc(OC)c1OC,"inconclusive: 12.6 µM [inhibitor, partial curve]"
19,Cc1ccc(CN2CCCn3nc(C(=O)NCCc4cccc(C)c4)cc3C2=O)cc1,inactive
20,COc1ccc(C2=NN(CC(=O)NCc3ccco3)C(=O)CC2)cc1,"inconclusive: 17.8 µM [inhibitor, single point]"
21,O=C(Cn1nnc2c(cnn2-c2ccc(F)cc2)c1=O)OC1CCCCC1,"inconclusive: 35.5 µM [inhibitor, partial curve]"
22,O=C(COc1ccccc1)Nc1ccc2c(c1)nc1n2CCSC1,"inconclusive: 4.47 µM [inhibitor, partial curve]"
23,COc1cc(/C=C2/SC(=S)N(CC(=O)NC(C)(C)C)C2=O)cc(OC)c1OC,"inconclusive: 15.8 µM [inhibitor, partial curve]"
24,CC(C)C1Oc2ccccc2N(CC(=O)N(Cc2ccncc2)Cc2ccco2)C1=O (stereo not given),inactive

row,SMILES,Potency
1,Clc1ccc(-c2cc(-c3ccccn3)on2)c(Cl)c1,"inconclusive: 0.355 µM [inhibitor, partial curve, poor fit]"
2,Cc1cc(C)cc(Oc2coc3cc(OC(=O)c4cccs4)ccc3c2=O)c1,"inconclusive: 15.8 µM [inhibitor, partial curve]"
3,CN(C)c1cccc(NC(=O)CCc2ccccc2)c1,inactive
4,C/C(=N\Nc1ccc(F)cc1F)c1ccccc1O,"inconclusive: 15.8 µM [inhibitor, partial curve]"
5,Cc1ccc(S(=O)(=O)NC(C)C(c2cccs2)N2CCN(c3ccccc3)CC2)cc1 (stereo not given),"inconclusive: 15.8 µM [inhibitor, partial curve]"
6,CC12CCCCC1(O)[N+](=O)C1=C(CCCC1)N2[O-] (stereo not given),inactive
7,CCOc1ccc(NS(=O)(=O)c2ccc(NS(=O)(=O)c3ccc(SC)cc3)cc2)cc1,inactive
8,Cc1c(S(=O)(=O)c2ccccn2)c(N)n(Cc2ccccc2)c1C,inactive
9,CCOC(=O)c1[nH]c(C)c(C(=O)NC2CCCCCC2)c1C,inactive
10,CN(C)/C=C/C1=C([N+](=O)[O-])C(c2cccc([N+](=O)[O-])c2)NC(=O)N1 (stereo not given),"inconclusive: 22.4 µM [inhibitor, partial curve]"
11,Cc1cccc(C(=O)Oc2c(Sc3ccccc3)c(C)nn2C(C)(C)C)c1,inactive
12,Cc1ccc(-c2ccc(=O)n(CC(=O)N3CCN(c4cc(Cl)ccc4C)CC3)n2)cc1,"inconclusive: 28.2 µM [inhibitor, partial curve]"
13,Cc1ccccc1NC(=S)C1=C(O)c2sccc2N(C)S1(=O)=O,"inconclusive: 15.8 µM [inhibitor, partial curve]"
14,COc1cccc(C(=O)/C=C/Nc2ccc(S(=O)(=O)Nc3cccc(C(C)=O)c3)cc2)c1,"inconclusive: 2.82 µM [inhibitor, full curve]"
15,CCCn1c2ccccc2c2nnc(SCC(=O)OC)nc21,inactive
16,Cc1c(CCOC(=O)C2C3CC4CC(C3)CC2C4)sc[n+]1CC(=O)c1ccc(Br)cc1 (stereo not given),"inconclusive: 28.2 µM [inhibitor, partial curve]"
17,Cc1ccc(Cl)cc1NC(=O)c1ccc(Cn2cc(Cl)cn2)cc1,"inconclusive: 39.8 µM [inhibitor, single point]"
18,CCCOc1ccc(CSc2ncn[nH]2)cc1,inactive
19,COc1ccc(NC(=O)Cn2cc(S(=O)(=O)Cc3ccccc3)c3ccccc32)c(OC)c1,"inconclusive: 20 µM [inhibitor, partial curve]"
20,O=C(COc1ccccc1Cl)Nc1ccc(CN2CCCCC2)cc1,inactive
21,N=C1/C(=C/c2cccs2)C(=O)N=C2SN=C(SCc3ccccc3)N12,active: 17.8 µM
22,Cc1ccsc1C1C2=C(CCCC2=O)Nc2ncnn21 (stereo not given),inactive
23,Cc1ccc(C(=O)Nc2cccc(C(=O)OCc3cc(=O)n4nc(C5CC5)sc4n3)c2)cc1,"inconclusive: 0.708 µM [inhibitor, full curve]"
24,Cc1ccc(-n2c(N)c(-c3nc4ccccc4n3C)sc2=S)cc1,"inconclusive: 12.6 µM [inhibitor, partial curve]"

row,SMILES,Potency
1,C#CCOCCOCCOCCNc1nc(N2CCN(C(=O)[C@H](CCCCN)n3cc([C@@H](N)CC(C)C)nn3)CC2)nc(N2CCN(C(=O)[C@H](Cc3cc4ccccc4[nH]3)n3cc([C@@H](N)Cc4ccc(O)cc4)nn3)CC2)n1,"inconclusive: 35.5 µM [inhibitor, single point]"
2,CC(C(=O)N1CCCCC1)n1sc2ccccc2c1=O (stereo not given),inactive
3,Cc1ccc(CNc2oc(C)nc2C#N)cc1,"inconclusive: 39.8 µM [inhibitor, single point]"
4,Clc1ccc(Nc2c(-c3ccccc3Cl)nc3ccc(Cl)cn23)cc1,inactive
5,O=[N+]([O-])c1nn(-c2cccc(Cl)c2)n(O)c1=NCc1cccnc1,"inconclusive: 14.1 µM [inhibitor, partial curve]"
6,CCOC(=O)c1ccc(N2C(=O)c3n[nH]c(-c4ccco4)c3C2c2cccc(O)c2)cc1 (stereo not given),"inconclusive: 39.8 µM [activator, single point]"
7,NC(=O)c1ccsc1NC(=O)CSc1nnc(Nc2ccccc2)s1,"inconclusive: 17.8 µM [inhibitor, partial curve]"
8,Cc1onc(-c2ccccc2)c1C(=O)N1CCN(S(=O)(=O)c2ccc3c(c2)OCCO3)CC1,inactive
9,CCn1c(=O)c(C(=O)CN(C)Cc2cccc(OC)c2OC)c(N)n(Cc2ccccc2)c1=O,inactive
10,O=C(Cn1nc2ccccc2n1)N/N=C/c1cc([N+](=O)[O-])ccc1O,"inconclusive: 20 µM [inhibitor, partial curve]"
11,Cc1noc(NS(=O)(=O)c2ccc(N/C=C\C(=O)c3ccccc3)cc2)c1C,"inconclusive: 15.8 µM [inhibitor, partial curve]"
12,CCN(CC)C(=O)Cn1cc(C(=O)C(=O)N2CC=C(c3ccccc3)CC2)c2ccccc21,"inconclusive: 31.6 µM [inhibitor, partial curve]"
13,CCc1nn(CC(=O)Nc2ccc(NC(C)=O)cc2)c(=O)c2cc3sccc3n12,"inconclusive: 3.98 µM [activator, full curve]"
14,Cc1cc2cc(C#N)c(N3CCN(S(C)(=O)=O)CC3)nc2cc1C,"inconclusive: 39.8 µM [inhibitor, single point]"
15,CCOC(=O)COn1c(=O)c(-c2cc3ccccc3o2)[n+]([O-])c2ccccc21,"inconclusive: 12.6 µM [inhibitor, partial curve]"
16,O=C(CCN1C(=O)/C(=C/c2ccc3c(c2)OCO3)SC1=S)NNC(=O)c1cccnc1,"inconclusive: 0.794 µM [inhibitor, full curve]"
17,CC1CCN(C(=O)C2COc3ccccc3C2)CC1 (stereo not given),inactive
18,CCS(=O)(=O)C1=NSC2=NC(=O)/C(=C\c3cc(C)n(-c4cccc(OC)c4)c3C)C(=N)N21,"inconclusive: 20 µM [inhibitor, partial curve]"
19,OC(CNCCc1ccccc1)c1ccccc1 (stereo not given),inactive
20,O=C(c1cccc(C(F)(F)F)c1)N(c1ccccn1)C1CCCCC1,inactive
21,Cc1ccc(Nc2sc(C(=O)c3ccccc3)c(N)c2C(N)=O)cc1,"inconclusive: 15.8 µM [inhibitor, single point]"
22,O=c1oc2ccccc2cc1-c1nc2ccccc2o1,"inconclusive: 17.8 µM [inhibitor, partial curve]"
